Reference: the supplement of paper PMC10126150
Values marked as one replicate rest on one cluster of the flow cell; about a third of the high ones do not repeat.

Tested on: ATP
Assay: switch fluorescence ratio, 500 uM ATP over buffer (Cy3 cluster intensity, sum of 5 cycles each) (fold (ratio)); higher = stronger signal-on switching upon ATP binding; sequences stand for … in TCGTCGGCAGCGTCAGATGTGTATAAGAGACAGTTTTTTTTTTTTTTTTTTTTTTTTT…TC
Conditions: aptamer strand: ATP DNA aptamer (quencher-CACCTGGGGGAGTATTGCGGAGGAAGG + anchor), 100 nM annealed; ATP concentration: 500 uM; one replicate
In short: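 Per cluster, summed Cy3 intensity from the target cycles was divided by that from the buffer cycles to give the fluorescence ratio, then averaged per switch-domain sequence. Clusters outside 100-1000 RFU were excluded. The Cy3-labelled switching-strand clusters, on a modified Illumina MiSeq flow-cell, were annealed to 100 nM quencher-labelled ATP aptamer and imaged in selection buffer, then after 15 min with 500 uM ATP at 22 °C, for five cycles with NaOH stripping and re-annealing between them.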
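Note: ATP exposure 15 min at 22 °C before imaging.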

Sequence	switch fluorescence ratio
ACTCCGTATG	2.35
GGGTTCCGAC	1.14
TAGTATGACT	0.951
ATGTGTCACC	1.04
AGGATCAGCC	1.05
CCATTTACAA	1.02
ACGCGTGTGT	0.992
TAGAACAGTG	1.01
TATCGATTG	1.03
CATTAAACA	0.98
GTTAGTGCCC	0.983
CGACACGAAT	1.03
TGTTTACCG	0.99
GCTCTTGGAA	1.07
CGGTATCGTG	0.972
TCCTGATCTT	0.993
TCCCTGTAGA	1.04
GTACAAGGA	0.957
ATATTTCATC	0.983
GGGTTGTCAT	0.984
ATTATATACA	1.05
TATAGCAATC	4.54
CTCTGGATCG	0.985
ATATGAGAGA	1.03
CTTGTCCTAT	0.983

Sequence	switch fluorescence ratio
CTGGGAAATC	0.978
ATCAGTTCGG	1.01
TTTCCACCAT	1.11
GCTGTGATGC	1.06
CTGAATAATA	0.981
CTCTTTAAGC	1.02
TGGTTCCCCG	1.07
AAAACTTGCG	1.03
AAAAAAGGT	0.985
TCGACTGCGC	1.33
AGGTATTTTA	0.992
ATTGGTTGAG	0.989
TACGCCCAGA	1.03
TCTCCGCGCG	3.08
GCAACGTAGT	0.982
TAGCGAATGG	1.08
TCAAGTAATG	1.03
ATCGTATGAT	0.977
TATGTGGTCG	1
TTCGTTCAGA	1
AGTGGTACT	1
GCTGGGATTT	1.01
CTGGTAGCCT	1.04
GTATGGGTGC	1.03
TTGACGTATG	1.01

Sequence	switch fluorescence ratio
GCGTTTCGTC	0.958
AAATTAGACT	0.997
CACAGTTGAG	1.02
GTCTTTTG	1
CATAACATGA	0.959
CCTGATCTGC	1.33
ACAGGTTGG	1.06
ACGGCGCGAT	1.34
CATAGGGATT	1.01
TTTATTACTC	1.05
CATGTCTAGC	0.998
CTTGGTGGTC	1
GAAGGCCACG	1
CTATGGGTAG	1
GAAAACATAT	1
TTATCGTGGC	0.994
TGGAAATTAC	1.26
GCGACTGGCC	1.09
GAGATGCACT	1
TGAGGAGATG	0.96
CATTCGTTAC	3.51
CGTAATATAC	3.03
ACAGAGGCGA	1.02
TATATAAAC	1.02
TCTTGGCCGC	1.04

Sequence	switch fluorescence ratio
GGCTCGGGAT	0.991
AACTGGCCGT	1.03
GTGCGAAGGG	1.06
AGCATAATTT	1.03
GACTAAGGAT	0.97
TACTTTGGTC	0.981
TGGGTCCTCT	0.973
TGGATATAA	1.2
TTCTCTATCT	0.985
TGCGGATGTC	1.04
CAATTGGGCG	1.01
ACGGCAAATG	1.07
AAGGGATAGA	0.996
CACTAGGCAA	1.09
TGGGTTACTG	0.979
CTCACAACAT	1.07
ATGGTTGTAG	0.941
ATCTGGTGGC	0.995
GAATACTAGT	1.01
GCCCTGAGGC	1.09
AGCCTCATGT	1
TGGATGCCGT	1
ATGATAGGTT	1.02
CCGGGTAGTC	1.05
TCCGTGGATC	1.15

Sequence	switch fluorescence ratio
GGACGCTCGC	1.19
TTATGCTGTG	1
TATTTCTACG	1.07
CTTTTTGAAT	1.03
TGACACCTAG	1
ATTCGCAGGC	2.37
ACAGGCTCAG	1.02
CGATTGCGGT	1.06
TTGCTGGTTT	1.02
AGGATAGTTC	1.01
AGATAAAGAG	0.959
TTGTATCAAT	1.03
CATGGTTGAC	1
AGCGGGAGCA	0.931
AGCTTGGTTT	0.945
GCTGGCCTAA	1.02
GGCGACGGCT	1
CTTTGGCTCC	1.01
TTGAAACGTT	0.939
GCTCTAAGCT	1.01
TAACGTAGAT	1.06
TTTCTAACTT	0.993
TTGTCAAAAA	1.63
CATAGAGGCT	1.03
GACTAGTTGA	1.05

Sequence	switch fluorescence ratio
TAGTTTGACC	1.03
TAAAACCGTG	1.01
AAATGCAGCA	1.03
TCAGACATAA	0.966
CAAATGTGAC	1.03
ATACGCTCGA	0.982
TGGTCTGCTG	0.987
CCAGAGGCCC	1.02
AAAAGACGCG	1.11
ATTCGTCACG	1.02
ACTGGGCGGT	1.01
CGTCTTATTG	0.964
TTTCGGTTCG	1.02
GTTGGACACT	1.01
AGAGTTTGCG	1.08
CAAAAAGAAG	1.01
ACAATGACCA	1.01
GTACTGATCG	0.998
ATGCGAGATT	1
GGGGCTGATG	1.02
ACTGCATGA	1.07
TGTTTCCTCG	1.07
GGAGGAACAA	0.952
CAACACAGAT	1.03
GTCCCGGGGT	1.75

Sequence	switch fluorescence ratio
TCGGTTGTCG	0.961
AGGCACGTTC	1.05
TTTAAGCTGC	1.01
GCTTCTTTTA	0.986
TCGCAGCCGT	0.959
GTAGATGTGG	0.949
TAAAGTTAT	0.992
GTGTGCGATC	1.01
TTGGCCAAAA	1.01
TTTGGTTACG	0.998
CAGCGTCTGT	1.03
GAAAATTGCG	1
GGGGCGCGCA	1.03
TGAGGCCTGA	1
GCGACCCGTG	1.22
GGTTCATGCA	0.985
CGATCCCGCA	1.2
GATACACGTA	0.972
GCACGTGCCA	0.98
CGGAGTCCCG	0.965
GGTATAAACA	1.01
GCACACAAAT	1
GAACTATCGG	0.977
GATCGGTGA	1.03
AGTGTCGGGC	1

Sequence	switch fluorescence ratio
AGTAATGGGC	1.05
CTGGTTGGTA	0.967
GTGGGGGAG	1
AGCGACACAA	2.05
GTGTGGGCTT	0.973
GCTGGCCGTC	1.02
TTCAGAAAAG	1
GCCGGCTCTC	1.01
CTTTTAGTAC	0.989
AAACTATTAG	1.02
TGGGGGCCT	1.01
TTGGGATCTC	1.04
CAGGACACAT	1.02
ATCATTCGCT	1.06
GTCACACCC	1.21
CGTTCACACA	1.14
GAATGTTTAT	0.981
GTGGTACCTG	1.02
CCGTAGGGTC	1.22
TGAAATAAAG	1.01
ACAATGAGAC	1.03
GGAGCTGGCA	0.919
TAAGAAACAG	0.999
CAGGCCCCGC	1.01
CAGCGCTAAG	0.981
